# From the supplement of paper PMC8728848
# This is one part of the list.
# B1: PkBDPgamma (Plasmodium knowlesi) (protein)
# chain: SAINQIFLQNNVMDKCNDKRKRGERDWDCPTEKDVCIPDRRYQLCMMEITNLVDTDTHFHSDIIFRKSYSRRRLIYDVGGRGDLLLKKYNNVYSEDLCKDIKWSLQDFGDIIMGTDMEGIGYSLVVQNNLRSIFGTGTSAELDRKKWWNDHKKDIWKAMILSVKEKNRYSAWNCKEDVQIKVEPQIYRWIREWGRDYMSEFREQRRKLNEKCEDKLYYSTMLICTLPPCNNACKSYDEWITGKKKQWDVLSTKFSSVKKAQKIETENIARAYDILKQELNGFNEVTFENEINKRDKLYNYFCVCIVQEARKNTQENVKNVGSGVESKAPSSNPINEAVKSSSGEGKVQEDSAHRSVNEGEGKSSTNEADPGSQPGAAASGGGSGGGTGGGVDLAPQMLRELQETNAALQDVRELLRQQVKEITFLKNTVMECDACGGPLDRNLPPLAPLGPTGGWSHPQFEK
# Columns and labels:
# Test in all cases: glycan array binding signal (z-score within array); higher = stronger binding
# Conditions in all cases: glycan notation: IUPAC condensed, linker removed
# [1] = molecular target: Fuc(a1-2)[Gal(a1-3)]Gal(b1-4)GlcNAc(b1-2)Man(a1-3)[Fuc(a1-2)[Gal(a1-3)]Gal(b1-4)GlcNAc(b1-2)Man(a1-6)]Man(b1-4)GlcNAc(b1-4)GlcNAc
# In short: (§1)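 Negative Z-scores can be read as non-binding. The Z-score is calculated within each array and then averaged across arrays of one protein sequence at different concentrations or buffers and across linkers. Arrays, 3228 in all, were curated from the Consortium for Functional Glycomics database and kept only where the protein sequence was available.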
# [2] = molecular target: Fuc(a1-2)[Gal(a1-3)]Gal(b1-4)GlcNAc(b1-2)Man(a1-3)[Fuc(a1-2)[Gal(a1-3)]Gal(b1-4)GlcNAc(b1-2)Man(a1-6)]Man(b1-4)GlcNAc(b1-4)[Fuc(a1-6)]GlcNAc
# In short: as §1
# [3] = molecular target: Fuc(a1-2)[Gal(a1-3)]Gal(b1-4)GlcNAc(b1-3)GalNAc
# In short: as §1
# [4] = molecular target: Fuc(a1-2)[Gal(a1-3)]Gal(b1-4)GlcNAc(b1-3)[Fuc(a1-2)[Gal(a1-3)]Gal(b1-4)GlcNAc(b1-6)]GalNAc
# In short: as §1
# [5] = molecular target: Fuc(a1-2)[Gal(a1-3)]Gal(b1-4)GlcNAc(b1-6)GalNAc
# In short: as §1
# [6] = molecular target: Fuc(a1-2)[Gal(a1-3)]Gal(b1-4)[Fuc(a1-3)]Glc
# In short: as §1
# [7] = molecular target: Fuc(a1-2)[Gal(a1-3)]Gal(b1-4)[Fuc(a1-3)]GlcNAc
# In short: as §1
# [8] = molecular target: Fuc(a1-2)[Gal(a1-3)]Gal(b1-4)[Fuc(a1-3)]GlcNAc(b1-3)GalNAc
# In short: as §1
# [9] = molecular target: Fuc(a1-2)[Gal(a1-4)]Gal(b1-4)GlcNAc
# In short: as §1
# [10] = molecular target: Fuc(a1-2)[GalNAc(a1-3)]Gal
# In short: as §1
# [11] = molecular target: Fuc(a1-2)[GalNAc(a1-3)]Gal(b1-3)GalNAc(a1-3)[Fuc(a1-2)]Gal(b1-4)GlcNAc
# In short: as §1
# [12] = molecular target: Fuc(a1-2)[GalNAc(a1-3)]Gal(b1-3)GalNAc(b1-3)Gal(a1-4)Gal(b1-4)Glc
# In short: as §1
# [13] = molecular target: Fuc(a1-2)[GalNAc(a1-3)]Gal(b1-3)GlcNAc
# In short: as §1
# [14] = molecular target: Fuc(a1-2)[GalNAc(a1-3)]Gal(b1-3)GlcNAc(b1-2)Man(a1-3)[Fuc(a1-2)[GalNAc(a1-3)]Gal(b1-3)GlcNAc(b1-2)Man(a1-6)]Man(b1-4)GlcNAc(b1-4)GlcNAc
# In short: as §1
# [15] = molecular target: Fuc(a1-2)[GalNAc(a1-3)]Gal(b1-3)GlcNAc(b1-2)Man(a1-3)[Fuc(a1-2)[GalNAc(a1-3)]Gal(b1-3)GlcNAc(b1-2)Man(a1-6)]Man(b1-4)GlcNAc(b1-4)[Fuc(a1-6)]GlcNAc
# In short: as §1
# [16] = molecular target: Fuc(a1-2)[GalNAc(a1-3)]Gal(b1-3)GlcNAc(b1-3)GalNAc
# In short: as §1
# [17] = molecular target: Fuc(a1-2)[GalNAc(a1-3)]Gal(b1-3)GlcNAc(b1-6)GalNAc
# In short: as §1
# [18] = molecular target: Fuc(a1-2)[GalNAc(a1-3)]Gal(b1-4)Glc
# In short: as §1
# [19] = molecular target: Fuc(a1-2)[GalNAc(a1-3)]Gal(b1-4)GlcNAc
# In short: as §1
# [20] = molecular target: Fuc(a1-2)[GalNAc(a1-3)]Gal(b1-4)GlcNAc(b1-2)Man
# In short: as §1
# [21] = molecular target: Fuc(a1-2)[GalNAc(a1-3)]Gal(b1-4)GlcNAc(b1-2)Man(a1-3)[Fuc(a1-2)[GalNAc(a1-3)]Gal(b1-4)GlcNAc(b1-2)Man(a1-6)]Man(b1-4)GlcNAc(b1-4)GlcNAc
# In short: as §1
# [22] = molecular target: Fuc(a1-2)[GalNAc(a1-3)]Gal(b1-4)GlcNAc(b1-2)Man(a1-3)[Fuc(a1-2)[GalNAc(a1-3)]Gal(b1-4)GlcNAc(b1-2)Man(a1-6)]Man(b1-4)GlcNAc(b1-4)[Fuc(a1-6)]GlcNAc
# In short: as §1
# [23] = molecular target: Fuc(a1-2)[GalNAc(a1-3)]Gal(b1-4)GlcNAc(b1-3)Gal(b1-4)GlcNAc
# In short: as §1
# [24] = molecular target: Fuc(a1-2)[GalNAc(a1-3)]Gal(b1-4)GlcNAc(b1-3)Gal(b1-4)GlcNAc(b1-3)Gal(b1-4)GlcNAc
# In short: as §1
# [25] = molecular target: Fuc(a1-2)[GalNAc(a1-3)]Gal(b1-4)GlcNAc(b1-3)GalNAc
# In short: as §1
# [26] = molecular target: Fuc(a1-2)[GalNAc(a1-3)]Gal(b1-4)GlcNAc(b1-3)[Fuc(a1-2)[GalNAc(a1-3)]Gal(b1-4)GlcNAc(b1-6)]GalNAc
# In short: as §1
# [27] = molecular target: Fuc(a1-2)[GalNAc(a1-3)]Gal(b1-4)GlcNAc(b1-6)GalNAc
# In short: as §1
# [28] = molecular target: Fuc(a1-2)[GalNAc(a1-3)]Gal(b1-4)[Fuc(a1-3)]GlcNAc
# In short: as §1
# [29] = molecular target: Fuc(a1-2)[GalNAc(a1-3)]Gal(b1-4)[Fuc(a1-3)]GlcNAc(b1-3)GalNAc
# In short: as §1
# [30] = molecular target: Fuc(a1-2)[GalNAc(a1-4)]Gal(b1-4)GlcNAc
# In short: as §1
binder,measurement,setting,value
B1,glycan array binding signal (z-score),[1],0.37
same,glycan array binding signal (z-score),[2],-0.045
same,glycan array binding signal (z-score),[3],-0.37
same,glycan array binding signal (z-score),[4],0.056
same,glycan array binding signal (z-score),[5],0.292
same,glycan array binding signal (z-score),[6],0.263
same,glycan array binding signal (z-score),[7],0.066
same,glycan array binding signal (z-score),[8],-0.566
same,glycan array binding signal (z-score),[9],0.52
same,glycan array binding signal (z-score),[10],-0.098
same,glycan array binding signal (z-score),[11],-0.349
same,glycan array binding signal (z-score),[12],0.176
same,glycan array binding signal (z-score),[13],0.388
same,glycan array binding signal (z-score),[14],0.186
same,glycan array binding signal (z-score),[15],0.314
same,glycan array binding signal (z-score),[16],0.298
same,glycan array binding signal (z-score),[17],-0.403
same,glycan array binding signal (z-score),[18],-0.206
same,glycan array binding signal (z-score),[19],0.177
same,glycan array binding signal (z-score),[20],-0.393
same,glycan array binding signal (z-score),[21],0.106
same,glycan array binding signal (z-score),[22],0.332
same,glycan array binding signal (z-score),[23],-0.454
same,glycan array binding signal (z-score),[24],-0.088
same,glycan array binding signal (z-score),[25],-0.088
same,glycan array binding signal (z-score),[26],-0.092
same,glycan array binding signal (z-score),[27],-0.264
same,glycan array binding signal (z-score),[28],-0.254
same,glycan array binding signal (z-score),[29],-0.356
same,glycan array binding signal (z-score),[30],0.172
